52 compounds from paper PMC6919601, “Identification of Plasmodium dipeptidyl aminopeptidase allosteric inhibitors by high throughput screening” (PLoS ONE, 2019) can be followed below.

The whole screen tested about 110,000 compounds, of which about 230 (0.21%) showed an effect of 50% or more. The list shows a part of the results.
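Note: 30 min substrate incubation versus DMSO and 10 µM JCP410 controls.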

For this experiment, the target named is DPAP1 (Plasmodium falciparum, UniProt Q8IIJ9). The experiment is described as follows: primary screen, percent inhibition; read by cleavage of a fluorogenic dipeptide substrate; higher = more effect of the substance. Details: species or system P. falciparum D10 trophozoite lysates; single well.
DPAP1, sequence (Q8IIJ9 whole entry, looked up): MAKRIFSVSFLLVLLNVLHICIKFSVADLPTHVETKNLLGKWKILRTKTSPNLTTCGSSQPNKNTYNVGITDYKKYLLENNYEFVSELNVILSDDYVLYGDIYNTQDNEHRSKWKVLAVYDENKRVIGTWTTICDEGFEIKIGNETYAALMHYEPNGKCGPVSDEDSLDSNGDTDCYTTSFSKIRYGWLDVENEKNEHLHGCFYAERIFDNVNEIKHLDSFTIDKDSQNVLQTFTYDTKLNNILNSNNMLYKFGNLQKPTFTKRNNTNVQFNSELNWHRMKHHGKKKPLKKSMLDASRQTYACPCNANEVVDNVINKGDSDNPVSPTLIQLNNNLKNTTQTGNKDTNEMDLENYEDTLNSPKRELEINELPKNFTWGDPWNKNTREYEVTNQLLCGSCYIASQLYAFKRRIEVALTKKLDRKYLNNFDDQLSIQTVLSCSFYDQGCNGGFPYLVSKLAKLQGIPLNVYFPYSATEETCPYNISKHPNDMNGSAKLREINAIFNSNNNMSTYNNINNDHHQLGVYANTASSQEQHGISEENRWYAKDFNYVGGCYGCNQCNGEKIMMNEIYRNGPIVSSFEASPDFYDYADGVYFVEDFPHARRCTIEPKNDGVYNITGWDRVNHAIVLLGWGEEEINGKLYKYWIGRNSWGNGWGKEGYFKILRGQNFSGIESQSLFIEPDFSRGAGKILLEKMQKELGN
For `CCN(CC)C(=O)c1sc(NC(=O)c2ccncc2)c(C(=O)OC)c1C`, the “% Inhibition @ 10 uM” value is recorded as -1.19%.

As to `COc1ccc(-c2ncc(-c3ccccc3)o2)cc1`, the “% Inhibition @ 10 uM” value is reported as 2.65%.

As to `Cc1nn(C2CCCCC2)c(N)c1-c1ccccc1`, the “% Inhibition @ 10 uM” value turned out to be 0.392%.

For `COc1cccc2sc(N(CCCN(C)C)C(=O)c3ccc(C(C)=O)cc3)nc12`, the “% Inhibition @ 10 uM” value turned out to be 8.99%.

For `CC(C)c1ccccc1OCCCCNC(C)(C)C`, the “% Inhibition @ 10 uM” value is -3.38%.

For the compound `Cc1ccccc1Cn1ccc(NC(=O)COCc2cc(-c3ccc4c(c3)OCO4)on2)n1`, the “% Inhibition @ 10 uM” value is recorded as 1.05%.

As to `COc1cccc(-c2cn3nc(C4CC4)sc3n2)c1`, the “% Inhibition @ 10 uM” value was -4.54%.

On to `Cc1ccc(N2C(=O)CC(NCc3ccccc3)C2=O)cc1` (stereo not shown), for which the “% Inhibition @ 10 uM” value stood at 4.22%.

On to `Cc1ccc(Cn2nnc3sc4c(c3c2=O)CCCC4)cc1`, for which the “% Inhibition @ 10 uM” value is reported as -2.98%.

For the compound `Cc1ccc(S(=O)(=O)N2C[C@@H](c3ccccc3)O[C@@H](c3ccccc3)C2)cc1`, the “% Inhibition @ 10 uM” value is on record as -1.38%.

With `Cc1nc(C(=O)Nc2nnc(-c3ccccc3)s2)cc2c1[nH]c1ccccc12`, the “% Inhibition @ 10 uM” value was found to be 1.96%.

In the case of `O=C(O)c1ncccc1C(=O)N1CCN(c2ccccc2F)CC1`, the “% Inhibition @ 10 uM” value was -1.45%.

On to `CCc1ccc(C2C(C#N)=C(N)Oc3[nH]nc(-c4ccccc4)c32)cc1` (stereo not shown), for which the “% Inhibition @ 10 uM” value was -1.64%.

On to `CC(c1ccccc1)C1C(C#N)=C(N)OC2=C1C(=O)CC(C)(C)C2` (stereo not shown), for which the “% Inhibition @ 10 uM” value is given as -3.46%.

`COc1ccc(S(=O)(=O)Nc2ccc(C(C)=O)cc2)cc1`: the “% Inhibition @ 10 uM” value amounted to 2.64%.

For the compound `Cc1ccc2c(CNC3CCC(C)CC3)c(C(=O)O)n(Cc3ccc(F)cc3)c2c1` (stereo not shown), the “% Inhibition @ 10 uM” value stood at 1.26%.

On to `Cc1ccc2c(c1)-c1c(cnn1CC(=O)N(Cc1ccco1)C1CCCCC1)CO2`, for which the “% Inhibition @ 10 uM” value is -8.02%.

Consider `COc1ccc(OC)c(C2NC(S)=NC(C)=C2C(=O)Nc2ccccn2)c1` (stereo not shown), for which the “% Inhibition @ 10 uM” value was 3.06%.

With `Nc1c(C(=O)c2ccc(F)cc2)oc2ccccc12`, the “% Inhibition @ 10 uM” value stood at 4.08%.

As for `CC1CCN(c2ccc3nnc(CCC(=O)NCc4ccc5c(c4)OCO5)n3n2)CC1`, the “% Inhibition @ 10 uM” value is recorded as -11%.

For the compound `COc1ccc2c(c1)OC1(C)CC2C(S(=O)(=O)c2ccc(C(C)C)cc2)C(=O)N1C` (stereo not shown), the “% Inhibition @ 10 uM” value was -0.72%.

With `O=C1c2cccnc2C(=O)N1Cc1ccc(F)cc1S(=O)(=O)NC1CCCCCC1`, the “% Inhibition @ 10 uM” value was determined as 2.48%.

Consider `Cc1nc(CC(=O)Nc2ccc(Br)cc2)cs1`, for which the “% Inhibition @ 10 uM” value amounted to 5.03%.

`Cc1cccc(NS(=O)(=O)c2ccc(Cl)cc2)c1`: the “% Inhibition @ 10 uM” value is given as -3.65%.

For the compound `O=C1N=C(N2CCCCC2)S/C1=C\c1cccs1`, the “% Inhibition @ 10 uM” value is reported as -3.26%.

In the case of `COc1cccc(/C=C(\C#N)c2nc3ccccc3[nH]2)c1O`, the “% Inhibition @ 10 uM” value turned out to be 5.7%.

Consider `COc1ccc(Cc2nnc(NC(=O)Cc3cccs3)s2)cc1OC`, for which the “% Inhibition @ 10 uM” value is -2.92%.

For the compound `Cc1c2ccccc2n2cc(-c3ccccc3)nc(C(C)C)c12`, the “% Inhibition @ 10 uM” value was -2.2%.

Consider `O=C(COc1ccccc1Cl)NCCC1=CCCCC1`, for which the “% Inhibition @ 10 uM” value was 3.79%.

As for `CCc1cc2c(Nc3ccncc3)ncnc2s1`, the “% Inhibition @ 10 uM” value was determined as 3%.

With `Cc1ccc(-n2nnc3c(=O)n(CC(=O)NCc4ccc(F)cc4)cnc32)cc1`, the “% Inhibition @ 10 uM” value is -4.17%.

Regarding `CC(C)C[C@H](NS(=O)(=O)c1cccc(C(F)(F)F)c1)C(=O)NCC#N`, the “% Inhibition @ 10 uM” value is -14%.

In the case of `CC(CC(NC(=O)OCc1ccccc1)C(=O)NCC#N)c1ccccn1` (stereo not shown), the “% Inhibition @ 10 uM” value is listed as -3.48%.

Consider `COc1ccc(C2(C(=O)NCc3ccco3)CCOCC2)cc1`, for which the “% Inhibition @ 10 uM” value is given as -4.85%.

Turning to `COC(=O)c1nc2nc(C)cc(C)n2n1`, the “% Inhibition @ 10 uM” value is -3.26%.

For `CC(C)(O)C#Cc1ccc(C(=O)NCc2ccccc2F)cc1`, the “% Inhibition @ 10 uM” value is -4.49%.

Take `CC(C)CC(NC(=O)c1cccc(NC(=O)NC2CCN(Cc3ccccc3)CC2)c1)C(=O)NCC#N` (stereo not shown): the “% Inhibition @ 10 uM” value stood at 3.66%.

On to `COc1ccc(CNCc2c(C(=O)O)n(Cc3ccc(C)cc3)c3cc(C)ccc23)c(OC)c1`, for which the “% Inhibition @ 10 uM” value is 10.2%.

Take `COc1cc(OC)c(OC)cc1CN1CCN(C(=O)Cc2ccccc2)CC1`: the “% Inhibition @ 10 uM” value is given as -1.55%.

With `COc1ccc(C2c3c(oc4ccccc4c3=O)C(=O)N2c2nc(C)c(C)s2)cc1OC` (stereo not shown), the “% Inhibition @ 10 uM” value is on record as 0.161%.

Take `CC(C)CNC(=O)c1ccccc1NS(=O)(=O)c1ccccc1`: the “% Inhibition @ 10 uM” value is -2.28%.

Take `CCOc1ccc(CN2CCC3(C=Cc4ccccc43)CC2)cc1`: the “% Inhibition @ 10 uM” value is recorded as -1.64%.

Consider `COCCNC(=O)CCc1c(C)nc2c(c1C)c(=O)n(C)c(=O)n2C`, for which the “% Inhibition @ 10 uM” value is given as -4.97%.

With `Brc1csc(CN2CCN(c3ccccn3)CC2)c1`, the “% Inhibition @ 10 uM” value is -0.0404%.

Regarding `COc1ccc2c(c1)CCc1c(C(=O)NCCc3ccccc3)noc1-2`, the “% Inhibition @ 10 uM” value is -0.591%.

As for `CC1CCc2nc(NC(=O)COc3ccccc3Cl)sc2C1` (stereo not shown), the “% Inhibition @ 10 uM” value was -3.77%.

As to `Cc1ccc(C)c(NC(=O)CN(c2cccc(C(F)(F)F)c2)S(C)(=O)=O)c1`, the “% Inhibition @ 10 uM” value is reported as 1.59%.

As for `O=C(O)c1ccc(S(=O)(=O)c2ccc(S(=O)(=O)c3ccc(C(=O)O)c(C(=O)O)c3)cc2)cc1`, the “% Inhibition @ 10 uM” value is -1.74%.

Take `Cc1ccc(CNC(=O)CN(C)S(=O)(=O)c2cc(Br)cnc2N)cc1`: the “% Inhibition @ 10 uM” value is on record as 1.68%.

In the case of `CSc1nc(-c2ccccc2)nc2c1Cc1ccccc1O2`, the “% Inhibition @ 10 uM” value is listed as -8.42%.

As for `CCOC(=O)c1ccc(-n2cc3c(=O)n(C)c(=O)n(C)c3c2)cc1`, the “% Inhibition @ 10 uM” value was found to be 2.95%.

Regarding `O=C(CCC(=O)N1Cc2ccccc2Oc2ncccc21)NCCCc1ccccc1`, the “% Inhibition @ 10 uM” value is recorded as -4.51%.
